Test results taken from the supplement of paper PMC3334620.
Over roughly 33,000 sequences, “E-score (-0.5 to 0.5)” has its median near -0.035; the highest 2% begin near 0.34. The list shows a part of the results.

target: T1, Mot3 (UniProt P54785); test: PBM E-score (8-mer binding enrichment) (E-score (-0.5 to 0.5)); higher = stronger / more preferred TF binding; most listed sequences are background and not binding sites; conditions: protein concentration: 200 nM; construct: GST-full length
T1 sequence: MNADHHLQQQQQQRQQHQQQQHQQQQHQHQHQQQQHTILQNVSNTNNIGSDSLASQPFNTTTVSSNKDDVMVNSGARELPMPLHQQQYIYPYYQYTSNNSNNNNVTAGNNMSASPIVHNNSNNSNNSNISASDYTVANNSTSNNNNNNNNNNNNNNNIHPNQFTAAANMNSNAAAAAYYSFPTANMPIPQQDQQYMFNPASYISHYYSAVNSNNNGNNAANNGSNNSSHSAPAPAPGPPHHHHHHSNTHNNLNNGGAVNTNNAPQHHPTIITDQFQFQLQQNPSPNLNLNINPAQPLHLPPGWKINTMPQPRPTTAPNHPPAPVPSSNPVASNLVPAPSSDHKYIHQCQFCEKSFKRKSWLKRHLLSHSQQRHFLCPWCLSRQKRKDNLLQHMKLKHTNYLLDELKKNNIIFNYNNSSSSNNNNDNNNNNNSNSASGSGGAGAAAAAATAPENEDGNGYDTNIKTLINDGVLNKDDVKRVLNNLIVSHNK
Protocol: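 Universal 'all 10-mer' protein binding microarrays (Agilent AMADID 015681) probed with GST-tagged S. cerevisiae TFs (full-length or DBD) made by in vitro transcription/translation (PURExpress), about 100-200 nM. Bound TF was detected with fluorescent anti-GST. Each ungapped 8-mer (which stands for itself and its reverse complement) is scored by the PBM enrichment score (E-score), a modified Wilcoxon-Mann-Whitney statistic from -0.5 to +0.5, computed with the Universal PBM Analysis Suite. Scale: above 0.35 generally sequence-specific binding.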

Sequence	PBM E-score
ACCTAGGC	-0.0303
CATCAGTC	-0.102
ATACAAAA	0.182
GCACGTAC	0.0875
ACACTTTC	0.0387
ACTCTGCT	-0.157
CCACACTC	-0.231
ATGCGAGC	-0.135
CCCCCTCA	-0.297
CATAGGGA	0.0898
GCTGTGTA	0.354
CTCTAAGC	-0.142
ACAAAGAC	0.135
AATCTGCA	-0.0362
CACAAGTG	0.128
CACGCGAA	0.159
AGAGGTAT	0.156
ATGATCGG	-0.22
ACGGTTAA	0.192
GTGTATGA	0.163
ATCCTTTA	0.104
ATTTATGA	-0.0763
CAGTTCAA	-0.064
AACCAAAA	0.0731

Sequence	PBM E-score
ATTTCTAG	0.0373
ACCCAGGA	-0.0555
CCCACATA	-0.135
TCTTTGAA	-0.104
CACTATCA	0.00033
GAACAAAA	0.181
TAGGCTAA	-0.0523
GTAGTGAA	0.0895
CCAGCACA	-0.0764
CGCTCCGC	-0.312
GCGGGTTA	0.0504
TCGTATCA	-0.0617
GAGCGCAA	-0.211
CCGCGAGA	-0.221
CGAGTCAC	-0.163
GACGTAAC	0.0796
GTGTAGGA	0.244
AGATTGAC	-0.0586
CGTTTGAC	-0.0155
AAATTATC	0.21
GAAGGATA	-0.0542
AGCAGAAG	-0.205
ACAGGCGC	0.371
CGAGGTTC	-0.201

Sequence	PBM E-score
AGGTTACC	0.238
ATGAAACC	0.0541
AACCTTTG	0.0887
GGCCGCCC	-0.204
AAGCGTCA	0.0636
GGTTAACC	-0.0693
CGATTCCA	-0.0808
AACATTCC	-0.0683
AGTCCCAA	-0.123
CGGAGTTC	0.0816
AATTGTGA	0.108
ATTGGGTC	-0.0411
CTAGCTAA	-0.042
ACCGCTCG	-0.12
GTTGAGTA	0.212
CCCAGAAC	-0.194
AGCGCGAC	-0.24
ATTTCTAA	-0.0305
CCATAACA	0.255
AGTCTTAA	-0.00547
ATTCGGCA	-0.066
CATCAAGC	-0.203
AGTCCAGC	-0.109
AATCCTAC	0.0549

Sequence	PBM E-score
ACCATCAT	0.0139
GTTAAATA	0.257
ATGAGCTA	-0.0694
AAGCTGTG	-0.083
GGGATTTA	-0.105
CACGTAAC	0.128
AGTATGTG	-0.00317
GCCGCTAC	-0.314
GAACGGCA	-0.0742
CAGCACGA	-0.0559
ACGGGATC	0.0431
TCCACCCA	-0.259
GAGAGTCA	-0.259
TGTGAGAA	-0.0671
CTAACCCA	-0.0185
CGGCCCCC	-0.414
CTTTAGGA	0.261
TGTTGAAA	0.291
GCACTGAA	0.0704
ATGTAGTA	0.308
ATCAGCTC	-0.142
TAAGTCTA	-0.0273
